Our source for the binding values is PMC12036874.

Protein sequences, listed by entry. Tags and fused reporters are not part of them.
UniProt P02340: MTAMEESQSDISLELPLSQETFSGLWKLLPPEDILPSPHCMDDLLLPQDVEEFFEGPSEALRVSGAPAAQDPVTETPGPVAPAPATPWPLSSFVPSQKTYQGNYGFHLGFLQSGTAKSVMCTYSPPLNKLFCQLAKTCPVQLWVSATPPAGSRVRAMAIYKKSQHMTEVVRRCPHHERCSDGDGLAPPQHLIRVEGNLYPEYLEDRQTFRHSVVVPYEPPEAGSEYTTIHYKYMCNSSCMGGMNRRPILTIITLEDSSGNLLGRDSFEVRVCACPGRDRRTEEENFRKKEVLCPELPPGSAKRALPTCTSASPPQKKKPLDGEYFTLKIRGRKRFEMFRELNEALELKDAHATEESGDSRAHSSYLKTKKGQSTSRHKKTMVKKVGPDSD

Assay [1] concerns the target T1, full-length Pirh2 (total-length, TL) expressed in HEK293T cells (UniProt Q9CR50).
T1 sequence: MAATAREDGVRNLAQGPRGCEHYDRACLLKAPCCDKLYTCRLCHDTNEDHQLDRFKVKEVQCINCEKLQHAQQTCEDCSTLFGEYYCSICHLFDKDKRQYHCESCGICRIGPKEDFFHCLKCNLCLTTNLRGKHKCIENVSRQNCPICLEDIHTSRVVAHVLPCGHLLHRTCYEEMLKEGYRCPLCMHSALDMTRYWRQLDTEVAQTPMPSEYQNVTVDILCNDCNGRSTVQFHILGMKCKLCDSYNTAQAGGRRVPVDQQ
In words: co-IP; MG132-treated HEK293T cells co-transfected with AIG1, Pirh2 and p53 constructs (Figure 5Q, S8S).

Assay [2] addresses T2, Pirh2 E3 ubiquitin ligase (ring finger and CHY zinc finger domain containing 1, RCHY1), endogenous in HL-1 cardiomyocytes (mouse (endogenous in HL-1)) (UniProt Q9CR50).
T2 sequence: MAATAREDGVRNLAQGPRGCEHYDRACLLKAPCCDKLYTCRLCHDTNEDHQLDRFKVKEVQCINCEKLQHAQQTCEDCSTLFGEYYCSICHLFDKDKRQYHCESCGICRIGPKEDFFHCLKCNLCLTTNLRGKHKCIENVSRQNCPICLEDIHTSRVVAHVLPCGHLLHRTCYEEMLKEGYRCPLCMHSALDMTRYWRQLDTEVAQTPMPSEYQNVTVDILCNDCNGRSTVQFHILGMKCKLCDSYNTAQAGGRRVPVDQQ
Kind of assay: co-IP; Co-IP using anti-Pirh2 in HL-1 cardiomyocytes with or without AIG1 knockdown or overexpression under DOX (1 μM, 24 h) stress.

The target in assay [3] is T3, Pirh2 (total length, TL) overexpressed by adenovirus in HL-1 cardiomyocytes (UniProt Q9CR50).
T3 sequence: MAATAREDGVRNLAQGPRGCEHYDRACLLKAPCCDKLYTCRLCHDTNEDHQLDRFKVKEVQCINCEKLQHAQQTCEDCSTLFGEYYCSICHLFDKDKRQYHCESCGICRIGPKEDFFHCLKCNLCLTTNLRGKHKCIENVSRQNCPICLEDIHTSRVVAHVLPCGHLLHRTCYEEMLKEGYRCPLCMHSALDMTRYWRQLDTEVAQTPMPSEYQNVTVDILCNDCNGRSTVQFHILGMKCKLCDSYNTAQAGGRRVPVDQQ
Kind of assay: proximity ligation; DOX-treated HL-1 cardiomyocytes transfected with Vector, total-length or deletion-mutant AIG1 or Pirh2 adenovirus.

Assay [4] addresses T2, Pirh2 E3 ubiquitin ligase (ring finger and CHY zinc finger domain containing 1, RCHY1), endogenous in HL-1 cardiomyocytes (mouse (endogenous in HL-1)). In words: proximity ligation; endogenous proteins in HL-1 cardiomyocytes; DMSO or DOX (1 μM, 24 h), with or without AIG1 knockdown or overexpression.
Assay [5] deals with T4, Androgen-induced gene 1 (AIG1), endogenous in HL-1 cardiomyocytes (mouse (endogenous in HL-1)) (UniProt Q9D8B1).
T4 sequence: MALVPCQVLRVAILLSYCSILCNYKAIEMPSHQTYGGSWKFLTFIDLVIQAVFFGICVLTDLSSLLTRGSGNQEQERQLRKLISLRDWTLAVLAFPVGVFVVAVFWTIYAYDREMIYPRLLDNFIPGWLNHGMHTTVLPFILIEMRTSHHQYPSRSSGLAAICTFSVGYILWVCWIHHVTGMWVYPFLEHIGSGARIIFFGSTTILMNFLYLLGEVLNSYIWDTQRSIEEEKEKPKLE
In words: co-IP; endogenous proteins in cardiomyocytes, steady state and after DOX treatment (Figure S8N); bait antibody not told in the shown text.

Assay [6] has as its target T1, full-length Pirh2 (total-length, TL) expressed in HEK293T cells. In words: co-IP; Co-IP using an anti-HA tag in HEK293T cells co-transfected with total-length or truncated AIG1 and Pirh2 vectors.
In assay [7] the target is T2, Pirh2 E3 ubiquitin ligase (ring finger and CHY zinc finger domain containing 1, RCHY1), endogenous in HL-1 cardiomyocytes (mouse (endogenous in HL-1)). In words: co-IP; endogenous proteins in cardiomyocytes, steady state and after DOX treatment (Figure S8N); bait antibody not told in the shown text.
For assay [8] the target is unchanged. In words: proximity ligation; endogenous proteins in HL-1 cardiomyocytes; DMSO or DOX (1 μM, 24 h), with or without AIG1 knockdown or overexpression. This is another data set of the same source.
For assay [9] the target is unchanged. Kind of assay: proximity ligation; DOX-treated HL-1 cardiomyocytes transfected with Vector, total-length or deletion-mutant AIG1 or Pirh2 adenovirus.
Assay [10] has as its target T5, Pirh2 Δ137-189 aa mutant expressed in HEK293T cells (UniProt Q9CR50).
T5 sequence: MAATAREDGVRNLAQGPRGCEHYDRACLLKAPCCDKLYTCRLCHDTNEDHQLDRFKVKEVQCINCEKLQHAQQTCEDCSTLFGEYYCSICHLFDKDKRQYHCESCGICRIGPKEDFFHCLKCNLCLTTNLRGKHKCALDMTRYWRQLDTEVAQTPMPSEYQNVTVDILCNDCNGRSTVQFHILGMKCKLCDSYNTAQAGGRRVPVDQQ
Kind of assay: co-IP; Co-IP using an anti-HA tag in HEK293T cells co-transfected with total-length or truncated AIG1 and Pirh2 vectors.

Assay [11] has as its target T6, Pirh2 Δ99-107 aa mutant expressed in HEK293T cells (UniProt Q9CR50).
T6 sequence: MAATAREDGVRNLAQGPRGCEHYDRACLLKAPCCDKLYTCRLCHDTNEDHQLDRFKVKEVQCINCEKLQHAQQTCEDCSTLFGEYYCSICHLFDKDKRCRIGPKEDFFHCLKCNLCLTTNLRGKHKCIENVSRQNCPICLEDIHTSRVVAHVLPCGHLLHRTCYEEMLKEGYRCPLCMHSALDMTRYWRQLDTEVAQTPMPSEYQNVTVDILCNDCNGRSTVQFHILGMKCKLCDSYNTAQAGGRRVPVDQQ
The description is as above.

The target of assay [12] is T7, Pirh2 Δ31-57 aa mutant expressed in HEK293T cells (UniProt Q9CR50).
T7 sequence: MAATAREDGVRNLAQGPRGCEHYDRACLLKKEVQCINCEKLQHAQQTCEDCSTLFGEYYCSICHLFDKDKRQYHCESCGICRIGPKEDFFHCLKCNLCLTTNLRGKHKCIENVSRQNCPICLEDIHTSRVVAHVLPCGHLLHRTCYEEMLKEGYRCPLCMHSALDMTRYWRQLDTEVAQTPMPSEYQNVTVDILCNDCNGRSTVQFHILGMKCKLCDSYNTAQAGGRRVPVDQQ
The assay is described as above.

No constants are given. Whether binding was seen depends on the method and setting. Binding seen in cells or lysates may run through a third protein. Some binding calls cover weakened binding; strength is not graded here.

For “exogenous p53 expressed in HEK293T cells (from UniProt P02340 1-390)”, in assay [1], the binding entry is reported as “binds”.

Turning to “p53, endogenous in HL-1 cardiomyocytes (from UniProt P02340 1-390)”, the binding entry in assay [2], in assay [3] and in assay [4] was “binds” throughout.

B1: RNF34, endogenous in cardiomyocytes (enzyme, UniProt Q99KR6 1-376)
chain: MKAGATSMWASCCGLLNEVMGTGAVRGQQAGFPGSTGPFRFTPSSDFPTYPPAATEGPNIVCKACGLSFSVFRKKHVCCDCKKDFCSLCSVSQENLRRCSTCHLLQETAFQRPQLMRLKVKDLRQYLLLRNIPTDTCREKEDLVDLVLCHRGLGSGDDLDSSSLNSSRSQTSSFFTQSLFSNYTPPSATVSSFQGELMDRDGAFRSEVLAQVQSEIASANTDDDDDDDDDDDDDEDDDDEQEEEEQNPGLSKKKARASLSDLSSLEEVEGMSVRQLKEILARNFVNYSGCCEKWELVEKVNRLYKENEENQKSYGERMQLQDEEDDSLCRICMDAVIDCVLLECGHMVTCTKCGKRMSECPICRQYVVRAVHVFKS
With B1, the binding result in assay [5] is given as “binds”.

B2: AIG1 Δ35-93 aa mutant expressed in HEK293T cells (protein, UniProt Q9D8B1)
chain: MALVPCQVLRVAILLSYCSILCNYKAIEMPSHQTAFPVGVFVVAVFWTIYAYDREMIYPRLLDNFIPGWLNHGMHTTVLPFILIEMRTSHHQYPSRSSGLAAICTFSVGYILWVCWIHHVTGMWVYPFLEHIGSGARIIFFGSTTILMNFLYLLGEVLNSYIWDTQRSIEEEKEKPKLE
With B2, in assay [6], the binding result is reported as “no binding”.

B3: Androgen-induced gene 1 (AIG1), endogenous in HL-1 cardiomyocytes (protein, UniProt Q9D8B1 1-238)
chain: MALVPCQVLRVAILLSYCSILCNYKAIEMPSHQTYGGSWKFLTFIDLVIQAVFFGICVLTDLSSLLTRGSGNQEQERQLRKLISLRDWTLAVLAFPVGVFVVAVFWTIYAYDREMIYPRLLDNFIPGWLNHGMHTTVLPFILIEMRTSHHQYPSRSSGLAAICTFSVGYILWVCWIHHVTGMWVYPFLEHIGSGARIIFFGSTTILMNFLYLLGEVLNSYIWDTQRSIEEEKEKPKLE
In the case of B3, the binding entry in assay [3], in assay [7] and in assay [8] was “binds” throughout.

B4: AIG1 (total length, TL) overexpressed by adenovirus in HL-1 cardiomyocytes (protein, UniProt Q9D8B1 1-238)
chain: MALVPCQVLRVAILLSYCSILCNYKAIEMPSHQTYGGSWKFLTFIDLVIQAVFFGICVLTDLSSLLTRGSGNQEQERQLRKLISLRDWTLAVLAFPVGVFVVAVFWTIYAYDREMIYPRLLDNFIPGWLNHGMHTTVLPFILIEMRTSHHQYPSRSSGLAAICTFSVGYILWVCWIHHVTGMWVYPFLEHIGSGARIIFFGSTTILMNFLYLLGEVLNSYIWDTQRSIEEEKEKPKLE
As for B4, the binding entry in assay [9] was “binds”.

B5: full-length AIG1 (total-length, TL) expressed in HEK293T cells (protein, UniProt Q9D8B1 1-238)
chain: MALVPCQVLRVAILLSYCSILCNYKAIEMPSHQTYGGSWKFLTFIDLVIQAVFFGICVLTDLSSLLTRGSGNQEQERQLRKLISLRDWTLAVLAFPVGVFVVAVFWTIYAYDREMIYPRLLDNFIPGWLNHGMHTTVLPFILIEMRTSHHQYPSRSSGLAAICTFSVGYILWVCWIHHVTGMWVYPFLEHIGSGARIIFFGSTTILMNFLYLLGEVLNSYIWDTQRSIEEEKEKPKLE
As for B5, the binding entry is given as “binds” in assay [10], “binds” in assay [6], “binds” in assay [11] and “no binding” in assay [12].

B6: AIG1 Δ161-175 aa mutant expressed in HEK293T cells (protein, UniProt Q9D8B1)
chain: MALVPCQVLRVAILLSYCSILCNYKAIEMPSHQTYGGSWKFLTFIDLVIQAVFFGICVLTDLSSLLTRGSGNQEQERQLRKLISLRDWTLAVLAFPVGVFVVAVFWTIYAYDREMIYPRLLDNFIPGWLNHGMHTTVLPFILIEMRTSHHQYPSRSSGLAIHHVTGMWVYPFLEHIGSGARIIFFGSTTILMNFLYLLGEVLNSYIWDTQRSIEEEKEKPKLE
As for B6, the binding result in [6] is “binds”.
